Source: the supplement of paper PMC4967469

Columns and labels:
Experiment in all cases: Viability of human cancer cell lines after 72 h of drug (GDSC screen)
CHIR-99021 = compound: Cc1cnc(-c2cnc(NCCNc3ccc(C#N)cn3)nc2-c2ccc(Cl)cc2Cl)[nH]1 [CHIR-99021]
Description: (§1)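 Human cancer cell lines in 384-well plates, medium with 10% serum, drug for 72 h over a 256-fold dose range (nine 2-fold or five 4-fold steps up to the top dose). Adherent lines were fixed and stained with the nucleic acid dye Syto60, suspension lines read with resazurin; signal relative to control wells, capped at 0 and 100%. One two-parameter sigmoid per drug and line, fitted in a mixed model over all curves with the slope shared within a line.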

(5Z)-7-Oxozeaenol = compound: COc1cc(O)c2c(c1)/C=C/C[C@H](O)[C@H](O)C(=O)/C=C\C[C@H](C)OC2=O [(5Z)-7-Oxozeaenol]; conditions: top dose 10 µM; top dose inferred
Description: as §1

KU-55933 = compound: O=c1cc(-c2cccc3c2Sc2ccccc2S3)oc(N2CCOCC2)c1 [KU-55933]; conditions: top dose 10 µM
Description: as §1

Zibotentan = compound: COc1nc(C)cnc1NS(=O)(=O)c1cccnc1-c1ccc(-c2nnco2)cc1 [Zibotentan]; conditions: top dose 20 µM; top dose inferred
Description: as §1

MPS-1-IN-1 = compound: COc1cc(N2CCC(O)CC2)ccc1Nc1cc(Nc2ccccc2S(=O)(=O)C(C)C)c2cc[nH]c2n1 [MPS-1-IN-1]; conditions: top dose 20 µM; top dose inferred
Description: as §1

CP466722 = compound: COc1cc2ncnc(-n3nc(-c4ccccn4)nc3N)c2cc1OC [CP466722]; conditions: top dose 16 µM; top dose inferred
Description: as §1

Thapsigargin = compound: C/C=C(/C)C(=O)O[C@H]1C(C)=C2[C@H]([C@@H]1OC(=O)CCCCCCC)[C@@](C)(OC(C)=O)C[C@H](OC(=O)CCC)[C@@]1(O)[C@H]2OC(=O)[C@@]1(C)O [Thapsigargin]; conditions: top dose 0.512 µM; top dose inferred
Description: as §1

ABT-869 = compound: Cc1ccc(F)c(NC(=O)Nc2ccc(-c3cccc4[nH]nc(N)c34)cc2)c1 [ABT-869]; conditions: top dose 1.024 µM; top dose inferred
Description: as §1

Cytarabine = compound: Nc1ccn([C@@H]2O[C@H](CO)[C@@H](O)[C@@H]2O)c(=O)n1 [Cytarabine]; conditions: top dose 2 µM
Description: as §1

ABT-888 = compound: C[C@]1(c2nc3c(C(N)=O)cccc3[nH]2)CCCN1 [ABT-888]; conditions: top dose 5 µM; top dose inferred
Description: as §1

QL-X-138 = compound: C=CC(=O)Nc1cc(-n2c(=O)ccc3cnc4ccc(-c5cn[nH]c5)cc4c32)ccc1C [QL-X-138]; conditions: top dose 10.24 µM; top dose inferred
Description: as §1

GSK269962A = compound: CCn1c(-c2nonc2N)nc2cnc(Oc3cccc(NC(=O)c4ccc(OCCN5CCOCC5)cc4)c3)cc21 [GSK269962A]; conditions: top dose inferred
Description: as §1

CMK = compound: Cc1ccc(-c2c(C(=O)CCl)n(CCCO)c3ncnc(N)c23)cc1 [CMK]; conditions: top dose 4 µM; top dose inferred
Description: as §1

[1] = top dose 2.56 µM, screen: GDSC drug entry 154
[2] = top dose 10 µM, screen: GDSC drug entry 1241, top dose inferred
[3] = top dose 2.5 µM, screen: GDSC drug entry 127
[4] = top dose 5 µM, screen: GDSC drug entry 1192

| Cell Line | AUC (CHIR-99021; [1]) | IC50 (CHIR-99021; [1]) | AUC (CHIR-99021; [2]) | IC50 (CHIR-99021; [2]) | AUC ((5Z)-7-Oxozeaenol) | IC50 ((5Z)-7-Oxozeaenol) | AUC (KU-55933) | IC50 (KU-55933) | AUC (Zibotentan) | IC50 (Zibotentan) | AUC (MPS-1-IN-1) | IC50 (MPS-1-IN-1) | AUC (CP466722) | IC50 (CP466722) | AUC (Thapsigargin) | IC50 (Thapsigargin) | AUC (ABT-869) | IC50 (ABT-869) | AUC (Cytarabine) | IC50 (Cytarabine) | AUC (ABT-888) | IC50 (ABT-888) | AUC (QL-X-138) | IC50 (QL-X-138) | AUC (GSK269962A; [3]) | IC50 (GSK269962A; [3]) | AUC (GSK269962A; [4]) | IC50 (GSK269962A; [4]) | AUC (CMK) | IC50 (CMK) |
| --- | --- | --- | --- | --- | --- | --- | --- | --- | --- | --- | --- | --- | --- | --- | --- | --- | --- | --- | --- | --- | --- | --- | --- | --- | --- | --- | --- | --- | --- | --- |
| BB49-HNC (head and neck, adherent) | 0.971 | > 2560 nM | 0.851 | > 10000 nM | 0.385 | 266 nM | 0.923 | > 10000 nM | 0.975 | > 20000 nM | 0.978 | > 20000 nM | 0.972 | > 16000 nM | 0.939 | > 512 nM | 0.969 | > 1020 nM | 0.823 | 1880 nM | 0.978 | > 5000 nM | 0.976 | > 10200 nM | 0.305 | 34.9 nM | 0.18 | 21.4 nM | 0.966 | > 4000 nM |
| BC-1 (B-cell lymphoma, suspension) | 0.989 | > 2560 nM | 0.922 | > 10000 nM | 0.712 | 2230 nM | 0.956 | > 10000 nM | 0.99 | > 20000 nM | 0.859 | 12800 nM | 0.645 | 2360 nM | 0.487 | 29.7 nM | 0.979 | > 1020 nM | 0.988 | > 2000 nM | 0.989 | > 5000 nM | 0.529 | 758 nM | 0.87 | 1760 nM | 0.605 | 580 nM | 0.897 | 3660 nM |
| BE2-M17 (neuroblastoma, adherent) | 0.982 | > 2560 nM | 0.986 | > 10000 nM | 0.388 | 304 nM | 0.985 | > 10000 nM | 0.983 | > 20000 nM | 0.941 | > 20000 nM | 0.866 | 14900 nM | 0.43 | 20.5 nM | 0.985 | > 1020 nM | 0.73 | 579 nM | 0.98 | > 5000 nM | 0.88 | > 10200 nM | 0.984 | > 2500 nM | 0.755 | 1750 nM | 0.915 | > 4000 nM |
| BE-13 (lymphoblastic leukaemia, suspension) | 0.978 | > 2560 nM | 0.817 | 5120 nM | 0.704 | 2250 nM | 0.842 | 6350 nM | 0.977 | > 20000 nM | 0.822 | 10700 nM | 0.575 | 1580 nM | 0.274 | 7.69 nM | 0.862 | 783 nM | 0.732 | 543 nM | 0.978 | > 5000 nM | 0.799 | 4540 nM | 0.494 | 151 nM | 0.466 | 254 nM | 0.957 | > 4000 nM |

A lower IC50 marks a more sensitive line; a limit (>, <) means that the fit lies beyond the doses tested. AUC is the area under the same curve over the 256-fold range up to the top dose, as a fraction; it is 1 without any effect and falls as sensitivity rises. For part of these data: Where the top dose is marked as inferred, it comes from the curve model; the source does not state it. For part of these data: An entry number marks a drug with two screens in the source, which often give different values.
